PubChem BioAssay AID445 (National Center for Advancing Translational Sciences (NCATS), 2006)
Screen size: about 110,000 compounds; about 40 (0.04%) were called active. This list was built around the results that the source calls inconclusive (neither active nor inactive); the mix of calls is not that of the screen. Calls follow the shape of the dose curve; as a rule, active = well fitted curve in the direction sought with a large enough effect in the signal ratio (not every such curve was filed as active); inconclusive = small, poorly fitted or top-dose-only effect, or a change in a side signal; inactive = flat fitted curve, though single readings scatter; the % refers to the signal ratio. Potencies of inconclusive entries are doubtful fits and often do not repeat.

Assay: IkB Signaling;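 as to IkBa stabilization activation: 0% = basal untreated cells and 100% = reference inhibitor full response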
Details: ABC-DLBCL IkBa-CBG/CBR dual luciferase ratio (green luciferase fused to IkBa over red control in OCI-Ly3 lymphoma cells), 4 h; IkBa stabilization activation: at 57.1 µM (top of the series), scaled: untreated 0%, proteasome inhibitor 100% unless noted
In short: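 In this assay, an IκBα–CBG68 fusion accumulates when IKK-driven degradation is blocked; native CBR normalizes for cell number. OCI-Ly3 cells were treated 4 h with compound and doxycycline, then green and red light read after Chroma-Glo addition.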
Potency is read from the fitted curve at half-maximal effect.

| SMILES | IkBa stabilization activation | Potency |
| --- | --- | --- |
| CCCCNC(=O)c1ccc2c(c1)NC(=O)C(C(C)C)N2 (centres undefined) | inactive | – |
| COc1ccccc1NC(=O)C(=O)c1cc(C)n(-c2cc(C)cc(C)c2)c1C | inconclusive: 0.492% [signal inhibitor] | – |
| CCOc1cccc(-c2nc3ccccc3c(=O)o2)c1 | – | inconclusive: 20 µM [rising, partial curve] |
| COc1cccc(C(=O)Nc2nc(-c3nnn(-c4cc(C)ccc4C)c3C)ns2)c1 | inconclusive: 2.95% [signal inhibitor] | – |
| CC(NC(=O)CCc1cn(Cc2ccccc2Cl)c2ccccc12)c1ccccc1 (centres undefined) | inactive | – |
| CCc1ccc(N2C(=O)c3sc4nnc(C)c(=O)n4c3C2=O)cc1 | inactive | – |
| Cc1ccc(-c2nc(CS(=O)(=O)CC(=O)NC(C)CCc3ccccc3)c(C)o2)cc1 (centres undefined) | inconclusive: 4.12% [signal inhibitor] | – |
| Cc1c(NC(=O)Nc2cccc(C(F)(F)F)c2)sc2nc3n(c(=O)c12)CCC(C)CC3 (centres undefined) | inconclusive: 0.478% [signal inhibitor] | – |
| O=C(CCS(=O)(=O)c1ccccc1)N(Cc1cccnc1)c1nc2c(F)cccc2s1 | inconclusive: -4.4% [signal inhibitor] | – |
| CC(C)(C)C(=O)[C@H]([C@@H](c1ccccc1)N1CCOCC1)N1CCOCC1 | inactive: -0.128% [at 11.4 µM, scaled: untreated 0%, proteasome inhibitor 100%] | – |
| COC(=O)c1c(C)n(-c2ccc(OC)cc2)c2ccc(O)cc12 | inconclusive: 0.69% [signal inhibitor] | – |
| COc1ccc(-c2nc3sc(CCNC(=O)C(C)(C)C)c(C)n3n2)cc1 | inactive | – |
| O=C(O)CCc1ccc(-c2ccc(Br)cc2)n1-c1ccccc1O | inconclusive: 17.2% [signal inhibitor] | – |
| CCOC(=O)C1CCN(c2cc3c(cc2NC(=O)c2ccccc2Cl)n(C)c(=O)n3C)CC1 | inconclusive: 10.4% [signal inhibitor] | – |
| CC(C)n1c(Nc2ccccc2)nc2ccccc21 | inactive | – |
| Cc1cc(C)nc(N(C#N)CC(=O)N2CCC(C(N)=O)CC2)n1 | inactive | – |
| CCCCN(CC)CCNC(=O)Cn1cnc2sc(C)c(S(=O)(=O)N3CCN(c4ccccc4OC)CC3)c2c1=O | inconclusive: 4.64% [signal inhibitor] | – |
| CCOc1ccc(N2CC(c3nc4ccccc4n3CCOc3ccc(OC)cc3)CC2=O)cc1 (centres undefined) | inconclusive: 3.08% [signal inhibitor] | – |
| CC(C)Cc1nn2cc(-c3cccc(Br)c3)nc2s1 | – | inconclusive: 25.1 µM [signal inhibitor, partial curve] |
| CCOc1ccc2nc(N3CCCC(C(=O)NCCc4ccc(OC)cc4OC)C3)sc2c1 (centres undefined) | inconclusive: 2.89% [signal inhibitor] | – |
| O=C(Nc1ccc(F)c(Cl)c1)c1cc(S(=O)(=O)NCc2ccc3c(c2)OCO3)ccc1F | inconclusive: 15.7% [signal inhibitor] | – |
| CC(=O)c1cccc(NC(=O)C2CCCN(S(=O)(=O)c3ccccc3)C2)c1 (centres undefined) | inactive | – |
| Cc1ccc(Cl)cc1NC(=O)Cn1cccc1 | inactive | – |

| SMILES | IkBa stabilization activation | Potency |
| --- | --- | --- |
| Cc1ccc(CNCc2c(C(=O)O)c(C)n(Cc3ccc(C)cc3)c2C)cc1 | inconclusive: 1.6% [signal inhibitor] | – |
| CCn1c(=O)cc(OCC(=O)Nc2cc(OC)c(OC)c(OC)c2)c2ccccc21 | inconclusive: 3.41% [signal inhibitor] | – |
| CCc1ccc(S(=O)(=O)c2c(C(=O)c3ccc(C)c(C)c3)cnc3ccccc23)cc1 | inconclusive: 12.3% [signal inhibitor] | – |
| CCOc1ccc(CNC(=O)c2ccc3nc(CC)c(CC)nc3c2)cc1OC | inconclusive: 4.57% [signal inhibitor] | – |
| COc1cccc(N2CCN(c3ccc4nnc(CCC(=O)O)n4n3)CC2)c1 | inconclusive: 12.2% [signal inhibitor] | – |
| COc1ccc(CCNC(=O)CCCCCn2c(SCC(N)=O)nc3cc4c(cc3c2=O)OCO4)cc1OC | inconclusive: -2.39% [signal inhibitor] | – |
| N=c1c(C(=O)NCc2ccc3c(c2)OCO3)cc2c(=O)n3ccccc3nc2n1Cc1cccnc1 | inactive | – |
| CCN(CC)S(=O)(=O)c1ccc2c(c1)N(CC(=O)Nc1ccc(F)cc1)C(=O)CO2 | inconclusive: 11.3% [signal inhibitor] | – |
| CCOC(=O)Cc1csc(NC(=O)c2ccc(S(=O)(=O)N3CCCCC3)cc2)n1 | inconclusive: 1.8% [signal inhibitor] | – |
| CCOc1ccc(C2C(C#N)=C(N)SC(N)=C2C#N)cc1OCC | inactive | – |
| COc1cc(NC(=O)c2cc(C3CC3)nc3c2c(C)nn3-c2ccc(C)cc2)cc(OC)c1 | inconclusive: -1.32% [signal inhibitor] | – |
| CC(C)(C)C1CCC2(CC1)C(C#N)=C(SCC(=O)NC1CCCCC1)NC(=O)C2C#N (centres undefined) | inconclusive: 8.56% [signal inhibitor] | – |
| N#Cc1c(-c2ccco2)nc(SCC(=O)Nc2cccc(Cl)c2)[nH]c1=O | inconclusive: 5.75% [signal inhibitor] | – |
| COc1ccc(CCN2C(=O)c3[nH]nc(-c4ccccc4O)c3C2c2ccc(O)c(OC)c2)cc1 (centres undefined) | inconclusive: -1.68% [signal inhibitor] | – |
| COC(=O)c1ccc(NC(=O)CCNS(=O)(=O)c2cccc3nsnc23)cc1 | inconclusive: 1.97% [signal inhibitor] | – |
| O=c1cc(-c2c(F)c(F)c(F)c(F)c2F)oc2c(F)c(F)c(F)c(F)c12 | inconclusive: 0.526% [signal inhibitor] | – |
| CCC(CC)C(=O)Nc1nnc2n1CCS2 | inactive | – |
| CC1=CC(C#N)(C#N)C(C#N)(C#N)C(c2ccccc2)N1 (centres undefined) | inactive | – |
| O=C(Nc1ccccc1)N1CC=C(c2ccc(F)cc2)CC1 | – | inconclusive: 20 µM [signal inhibitor, partial curve] |
| Cc1ccc(S(=O)(=O)CCC(=O)c2ccc(O)cc2O)cc1 | inconclusive: -0.77% [signal inhibitor] | – |
| O=C(CCC1CCCCC1)N1CCN(Cc2ccc3c(c2)OCO3)CC1 | inconclusive: 3.99% [signal inhibitor] | – |
| O=C(Nc1sc2c(c1C(=O)NC1CCCCC1)CCC2)c1ccco1 | inactive | – |
| CN(C)c1ccc(CNC(=O)c2ccc(NC(=O)c3nsc4ccccc34)cc2)cc1 | – | inconclusive: 31.6 µM [signal inhibitor, partial curve] |

| SMILES | IkBa stabilization activation | Potency |
| --- | --- | --- |
| Cc1c(C(=O)NCc2ccccc2Cl)cccc1-n1cnc2cccnc21 | inconclusive: 3.25% [signal inhibitor] | – |
| Cc1cccc(CNC(=O)c2ccc3nc(-c4ccccc4)c(-c4ccccc4)nc3c2)c1 | inconclusive: 1.54% [signal inhibitor] | – |
| CCC1(c2ccccc2)C(=O)NCNC1=O | inconclusive: 1.16% [signal activator] | – |
| COc1ccc(C(C)=O)c(Oc2nc(CN3CCOCC3)nc3scc(-c4cccs4)c23)c1 | inactive | – |
| CCC12CN3CC(C)(CN(C1)C3c1c(C)n(C)c3ccccc13)C2=O (centres undefined) | inactive | – |
| O=C(NCCS(=O)(=O)N1CCN(c2ccc(F)cc2)CC1)c1cc(=O)c2ccccc2o1 | inactive | – |
| CSc1cccc(Nc2cc(C(=O)NCCCN(Cc3ccccc3)C(C)C)c3ccccc3n2)c1 | inactive | – |
| Cc1ccc(CCNc2ncnc3onc(C)c23)cc1 | inconclusive: -2.41% [signal inhibitor] | – |
| CCC(=O)N1c2ccccc2NC2=C(C(=O)CCC2)C1c1cccnc1 (centres undefined) | inconclusive: 8.57% [signal inhibitor] | – |
| Cc1ccc2occ(CC(=O)N(Cc3ccc(N(C)C)cc3)C3CCS(=O)(=O)C3)c2c1 (centres undefined) | inconclusive: -0.528% [signal inhibitor] | – |
| CN(C)c1ccc(-c2nccc(NCc3cccs3)n2)cc1 | inactive: 12.7% [at 11.4 µM, scaled: untreated 0%, proteasome inhibitor 100%] | – |
| COc1cc([C@@H]2c3cc4c(cc3[C@@H](O[C@@H]3O[C@H]5CO[C@@H](C)O[C@@H]5[C@@H](O)[C@H]3O)[C@@H]3COC(=O)[C@@H]23)OCO4)cc(OC)c1O | inactive | – |
| CCOc1ccc(CNC(=O)CCC(=O)N2CCSc3ccccc32)cc1 | inconclusive: 1.96% [signal inhibitor] | – |
| COc1cccc2cc(C(=O)N3CCc4ccccc43)c(=O)oc12 | inactive | – |
| CC1=Nc2cc(C(=O)NC3CCCC3)ccc2Sc2ccc(Br)cc21 | – | inconclusive: 10 µM [rising, partial curve] |
| COCCCNC(=O)C1CCCN(S(=O)(=O)c2ccc3c(c2)oc(=O)n3C)C1 (centres undefined) | inconclusive: 1.03% [signal inhibitor] | – |
| COc1cccc(Cn2c(=O)c(-c3ccc(Cl)cc3)nc3cncnc32)c1 | inactive: -0.235% [at 11.4 µM, scaled: untreated 0%, proteasome inhibitor 100%] | – |
| C[C@H](CN(C)C)C(=O)c1ccccc1C(=O)O | inactive: -0.94% [at 11.4 µM, scaled: untreated 0%, proteasome inhibitor 100%] | – |
| COc1ccccc1C(=O)NCC1(N2CCN(C)CC2)CCCCC1 | inactive | – |
| CCOCCCNC(=O)c1c[nH]c2ccc(S(=O)(=O)Nc3cccc(Cl)c3C)cc2c1=O | inconclusive: 6.24% [signal inhibitor] | – |
| O=C(C1COc2ccccc2O1)N1CCc2ccccc21 (centres undefined) | inactive | – |
| C=CCn1c(SCc2ccc(C#N)cc2)nnc1-c1cccc(OC)c1 | inactive | – |
| Cn1c(=O)oc2cc(S(=O)(=O)N3CCCC(C(=O)N4CCN(c5ccccc5F)CC4)C3)ccc21 (centres undefined) | inconclusive: 1.34% [signal inhibitor] | – |
